The supplement of paper PMC10126150
Values marked as one replicate rest on one cluster of the flow cell; about a third of the high ones do not repeat.

These sequences were tested on ATP (assay: switch fluorescence ratio, 500 uM ATP over buffer (Cy3 cluster intensity, sum of 5 cycles each) (fold (ratio)); higher = stronger signal-on switching upon ATP binding; sequences stand for … in TCGTCGGCAGCGTCAGATGTGTATAAGAGACAGTTTTTTTTTTTTTTTTTTTTTTTTT…TC). Settings: aptamer strand: ATP DNA aptamer (quencher-CACCTGGGGGAGTATTGCGGAGGAAGG + anchor), 100 nM annealed; ATP concentration: 500 uM; one replicate.
Method in brief: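 Exposure to 500 uM ATP lasted 15 min at 22 °C before imaging, and a selection-buffer image was taken beforehand, for Cy3-labelled switching-strand clusters on a modified Illumina MiSeq flow-cell annealed to 100 nM quencher-labelled ATP aptamer. Five buffer/ATP cycles were run with NaOH stripping and re-annealing between them. The fluorescence ratio per cluster is summed target-cycle over summed buffer-cycle Cy3 intensity, averaged per switch-domain sequence. Clusters outside 100-1000 RFU were excluded.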

Sequence | switch fluorescence ratio
CCGTATGGCT | 0.983
CCGTCCAGCG | 1.22
CCGTCCCTCG | 1.23
CCGTCGGTTT | 1.05
CCGTGATAGC | 2.21
CCGTGATGAA | 1.14
CCGTGCAAGA | 4.51
CCGTGCTGCT | 1.05
CCGTGCTTT | 1.12
CCGTGGCGCG | 1.01
CCGTGGGAAT | 1.06
CCGTGTCT | 1.04
CCGTTAAGTC | 1.2
CCGTTAGCAG | 2.64
CCGTTCACGC | 1.28
CCGTTCCGTT | 1.11
CCGTTCGCCT | 1.25
CCGTTGGAAG | 1.04
CCGTTTTGTC | 1.06
CCTAAAATC | 2.01
CCTAAAATCC | 1.09
CCTAAATACA | 1.15
CCTAAGAGGC | 0.993
CCTAAGGTTA | 1.06
CCTAATTTAT | 0.998

Sequence | switch fluorescence ratio
CCTACGGCAT | 2.71
CCTACTCTGG | 1.03
CCTAGAACGT | 0.938
CCTAGGATCA | 1.01
CCTAGGGATC | 1.06
CCTAGTAGCC | 1.12
CCTAGTTTGC | 1.05
CCTATAACGA | 1.05
CCTATAACTA | 1.01
CCTATGTCTT | 1.04
CCTATGTGAA | 1.11
CCTATGTTGC | 1.32
CCTATTGGTC | 0.964
CCTCAAGCGT | 5.39
CCTCACAGG | 1.52
CCTCACGACA | 3.24
CCTCAGGTGT | 2.96
CCTCAGTATG | 1.35
CCTCCAGTTG | 4.11
CCTCCTGGGG | 1.75
CCTCCTTTTT | 0.976
CCTCGGGCAT | 4.81
CCTCGGTCAT | 3.93
CCTCGTGATG | 1.69
CCTCGTGGCA | 1.66

Sequence | switch fluorescence ratio
CCTCGTGGGC | 1.54
CCTCTAAGAT | 3.29
CCTCTCGGCG | 1.29
CCTCTGAGCT | 1.8
CCTCTTTAAA | 1.54
CCTGAACGTT | 0.992
CCTGAGAAGT | 1.04
CCTGATTAAC | 1.05
CCTGCATGAT | 1.33
CCTGCCAAA | 2.19
CCTGCGACGC | 2.05
CCTGCGACGG | 1.28
CCTGCGGAGG | 1.15
CCTGCTACG | 1.06
CCTGGAATTA | 2.42
CCTGGCGTTT | 1.04
CCTGGGGTTA | 1.09
CCTGGTACTC | 1.54
CCTGGTCTTA | 0.975
CCTGGTTCGA | 0.964
CCTGTCGGCT | 1
CCTGTCGGGA | 0.997
CCTGTCGTCG | 1.01
CCTGTCTAGT | 0.973
CCTGTGTCTA | 1.13

Sequence | switch fluorescence ratio
CCTGTTAACG | 1.03
CCTGTTACAT | 1.03
CCTGTTTTAG | 1.03
CCTTAATTTC | 1.04
CCTTACTTAT | 1.08
CCTTAGTTTC | 1.11
CCTTATAGGG | 1.15
CCTTATATGG | 1.02
CCTTATGTCC | 1.01
CCTTCATCGA | 1.38
CCTTCTACCT | 1.23
CCTTGCCGCT | 1.05
CCTTGGTCGG | 0.946
CCTTGTAGAT | 1.01
CCTTGTCAAC | 1.04
CCTTGTCTGA | 0.93
CCTTGTTAAT | 1.05
CCTTTAACGA | 1.06
CCTTTAGGTG | 1.18
CCTTTATATT | 1.09
CCTTTCATT | 1.02
CCTTTCGAGG | 1.2
CCTTTCGTGA | 1.77
CCTTTCTTCG | 3.03
CCTTTGTAGT | 1.13

Sequence | switch fluorescence ratio
CCTTTGTCTT | 1.04
CCTTTTACAT | 1.02
CCTTTTTAGG | 1
CCTTTTTTAG | 1.02
CGAAAAGGCA | 0.99
CGAAAATGTT | 1
CGAAACAACT | 0.99
CGAAACTGCG | 0.988
CGAAAGCGCT | 1.03
CGAAAGGCTC | 1.35
CGAAAGGTGC | 1.17
CGAAAGTCC | 1.02
CGAAAGTGGG | 0.975
CGAAATAGTA | 1.04
CGAAATCTAC | 1.21
CGAAATGATA | 1.02
CGAACAAATA | 0.985
CGAACAATTT | 1.03
CGAACGAGAG | 1.09
CGAACGGTAG | 1.03
CGAAGACTAG | 1
CGAAGAGACA | 1.06
CGAAGCTGG | 1.27
CGAAGGAAGT | 0.988
CGAAGGAGAA | 0.965

Sequence | switch fluorescence ratio
CGAAGTTCCT | 0.977
CGAAGTTCGA | 1.05
CGAATAAATT | 0.984
CGAATATATC | 1.02
CGAATCAATA | 1.9
CGAATCTCAA | 1.06
CGAATGCATA | 1.62
CGAATGCTTG | 0.968
CGAATGGCTT | 1.12
CGACAAACTT | 1.12
CGACAAGTGG | 0.944
CGACAATTCC | 1.57
CGACACACCT | 1.62
CGACACAGAG | 1.07
CGACAGGGAT | 1.03
CGACATGAGC | 1.06
CGACATTG | 1.06
CGACCAAGAT | 1.95
CGACCTACTC | 2.5
CGACCTCAAA | 1.08
CGACCTGACT | 2.26
CGACGAGTTA | 1.09
CGACGCCCCG | 1.07
CGACGCCGGG | 1.2
CGACGCGCTG | 1.07

Sequence | switch fluorescence ratio
CGACGGAGAG | 1.14
CGACGGGAGG | 1.01
CGACGGTATT | 1.29
CGACGGTCTT | 1.02
CGACGGTGCT | 1.22
CGACGTGGGG | 1.07
CGACTAGACC | 1.08
CGACTCCCAC | 2.73
CGACTCCTAG | 0.996
CGACTTAGAA | 0.997
CGAGAAAGT | 0.988
CGAGACCGTC | 0.893
CGAGACGAAA | 0.994
CGAGACGCAC | 1.89
CGAGACTCAT | 1.02
CGAGAGAGCT | 1.03
CGAGCGTGGT | 0.979
CGAGCTCGGG | 0.985
CGAGCTTACA | 1.25
CGAGGACGAT | 1.01
CGAGGAGTTC | 1.01
CGAGGATTTA | 1.03
CGAGGCGTTC | 1.85
CGAGGCTTCG | 0.994
CGAGTAGCCA | 0.999

Sequence | switch fluorescence ratio
CGAGTAGTTA | 1.02
CGAGTATGTT | 0.964
CGAGTGCATG | 1.01
CGAGTTGTCG | 1.05
CGATAAGAAT | 1.03
CGATAATGTT | 1.01
CGATACAAGT | 1.02
CGATATAGGG | 0.978
CGATATATTT | 0.997
CGATATTCTA | 1.05
CGATCACGGG | 1.11
CGATCAGCTG | 1.03
CGATCCGATG | 1.02
CGATCCGCTT | 2.4
CGATCCTAGT | 1.03
CGATCGTTTG | 1.01
CGATCTTCCG | 1.14
CGATGACCA | 0.985
CGATGAGAC | 1.04
CGATGATCTG | 0.977
CGATGATGTA | 0.979
CGATGCGGCC | 1.2
CGATGGATA | 1.02
CGATGGGCAA | 1.52
CGATGTTGGA | 0.988
